Source: patent US20150259422A1

Legend:
[1] = target: rat C-loop peptide antigen (rat); test: ELISA on plate-coated C-loop peptide conjugate, four-parameter fit; mean ± SD, n = 3
[2] = target: mouse C-loop peptide antigen (mouse); test: as above

Kd [1] [nM] | Kd [2] [nM] | Binder
0.18 |  | VH5/Vκ2 Composite Human Antibody variant of HLMC (antibody, human IgG1, kappa) heavy: QAQLVQSGAEVKKPGASVKVSCKASGYLFSNSWMNWVKQRRGAGLEWIGRIFPGDGDTNYNGKFKGRVTITADKSTSTAYMELSSLRSEDTAVYYCARWGLTRDRRLYLDYWGQGTTVTVSS[human IgG1 constant region omitted here] light: DIVMTQSPDSLAVSLGERATINCKSSQSLLYSSNQKNYLAWYQQKPGQAPRLLIYWASTRESGVPDRFTGSGSGTDFTLTISSLQAEDVAVYYCKQYYTYPLTFGQGTKLEIKRTVAAPSVFIFPPSDEQLKSGTASVVCLLNNFYPREAKVQWKVDNALQSGNSQESVTEQDSKDSTYSLSSTLTLSKADYEKHKVYACEVTHQGLSSPVTKSFNRGEC
0.25 | 2.7 | VPI-2690B (antibody, human IgG1, kappa) heavy: QVQLVQSGAEVKKPGASVKVSCKASGYLFSNSWMNWVKQRRGAGLEWIGRIFPGDGDTNYNGKFKGRVTITADKSTSTAYMELSSLRSEDTAVYYCARWGLTRDRRLYLDYWGQGTTVTVSS[human IgG1 constant region omitted here] light: DIVMTQSPDSLAVSLGERATINCKSSQSLLYSSNQKNYLAWYQQKPGQAPRLLIYWASTRESGVPDRFTGSGSGTDFTLTISSLQAEDVAVYYCKQYYTYPLTFGQGTKLEIKRTVAAPSVFIFPPSDEQLKSGTASVVCLLNNFYPREAKVQWKVDNALQSGNSQESVTEQDSKDSTYSLSSTLTLSKADYEKHKVYACEVTHQGLSSPVTKSFNRGEC
